Structures are written as SMILES. Screen size: about 150,000 compounds; about 540 (0.36%) showed an effect of 50% or more. Some of the results follow.

In this assay the test system is Plasmodium falciparum. As to the kind of experiment: Primary screen in NF54 nanoGlo assay, in single point, at 2uM, 72h; a lower Z score goes with more inhibition. It is filed as functional, Erythrocyte. To be noted: timepoint 72 hour.
Broadly, the % Inhibition is the drop in the measured response relative to a control, in per cent. In the case of `COCCNC(=O)c1cc2cc(NC(=O)C3CCC3)ccc2n1Cc1cccc(F)c1`, the “% Inhibition” value is given as 1% and the Z score is given as -0.07.
The like results for `CC(C)Oc1ccc(F)cc1NC(=O)N(CCO)CCO` were, in that order, 29% and -3.22.
The like results for `Cc1cc(C(=O)Nc2cccc3cccnc23)on1` were, in that order, -4% and 0.32.
On to `O=C(c1cccc(O)c1)N1CCc2c(CN3CCCC3)cccc21`, for which the “% Inhibition” value is reported as -4% and the Z score was 0.69.
The like results for `CCO[C@H]1COC[C@@H]1NC(=O)N1CCC(Oc2ncccn2)CC1` were, in that order, -23% and 1.99.
The like results for `Cc1ccc(CN(Cc2nc(C(=O)NCc3ccc(F)cc3)co2)[C@@H](C)C(C)C)c(C)c1` were, in that order, -1% and 0.06.
The like results for `C[C@@H](Cc1ccoc1)NC(=O)Nc1cccc(Cl)c1` were, in that order, -4% and 0.55.
In the case of `CN(Cc1ccc(F)cc1)C(=O)Cn1c(C(F)(F)F)ccc(C(N)=O)c1=O`, the “% Inhibition” value was -2% and the Z score turned out to be 0.18.
The like results for `CC(C(=O)N1C2CCC1CC(=O)NC2)N(C)CC(F)(F)F` (stereo not given) were, in that order, 32% and -3.58.
The like results for `Cc1csc([C@@H](C)CNC(=O)NCCc2ccco2)n1` were, in that order, -11% and 1.55.
The like results for `CCc1noc(C)c1C(=O)Nc1sc(C)c(-c2ccc(OC)cc2)c1C#N` were, in that order, -13% and 1.17.
With `O=S(=O)(N[C@@H]1CCCOC1)c1c(F)cccc1OC(F)(F)F`, the “% Inhibition” value came to 3% and the Z score was -0.45.
With `COCCN1CCCN(c2ncnc3onc(C)c23)CC1=O`, the “% Inhibition” value came to 0% and the Z score is -0.01.
For `C[C@H]1CN(Cc2nnn(CC(F)(F)F)n2)c2ccccc2O1`, the “% Inhibition” value is listed as -7% and the Z score was 1.08.
The like results for `O=C(CCn1cnnn1)N1CCc2[nH]nc(-c3ccc4c(c3)OCO4)c2C1` were, in that order, -10% and 2.08.
The like results for `Cc1cc2ncc3c(n2n1)CCN(C(=O)c1cccnc1)C3` were, in that order, -2% and 0.32.
The like results for `CN(CCC1CCOCC1)Cc1ccc(Cl)o1` were, in that order, -13% and 2.68.
`Cc1ncc(NC(=O)c2cccc(Cl)c2Cl)s1`: the “% Inhibition” value is on record as -11% and the Z score came to 1.1.
The like results for `CCOc1ccc2c(c1)[C@@H](NC(=O)c1cn(-c3ccc(C)cc3)nn1)CCO2` were, in that order, 7% and -1.
The like results for `FC(F)(F)CCN(c1ncc(Br)cn1)C1CCC1` were, in that order, -1% and 0.17.
The like results for `Cn1ccnc(Nc2cnn(-c3ccc(C(F)(F)F)cc3)c2)c1=O` were, in that order, -8% and 1.24.
Consider `O=C1NC2(CCCCC2)C(=O)N1Cc1ccccc1Oc1ccccc1`, for which the “% Inhibition” value was 10% and the Z score was -1.18.
The like results for `CN(Cc1cc[nH]n1)c1nc(-c2cccnc2)nc2c1CCNCC2` were, in that order, 3% and -0.32.
The like results for `CC(C)C[C@H]1NC(=O)[C@H]2CN(S(=O)(=O)c3ccc4ccccc4c3)CCN2C1=O` were, in that order, -3% and 0.55.
The like results for `Cc1cc(C)cc(OCC(=O)N2CCN(c3snc(C)c3C#N)CC2)c1` were, in that order, -19% and 2.4.
For `CN(C[C@H]1CCCCO1)c1ccc2cc[nH]c2n1`, the “% Inhibition” value is recorded as -3% and the Z score is on record as 0.6.
Take `Cn1nc(C2CC2)cc1N1CCN(S(=O)(=O)c2ccccc2)CC1`: the “% Inhibition” value is reported as 10% and the Z score is given as -1.37.
The like results for `CCOC(=O)C1CCCN(CC(=O)N2CCCC2CC(=O)OC)C1` (stereo not given) were, in that order, 2% and -0.35.
The like results for `Cc1nnc(NCC2(N3CCOCC3)CCCCCC2)o1` were, in that order, 12% and -1.55.
Take `Cc1nn(C)c(C)c1S(=O)(=O)NC(=O)[C@@H](C)Cc1cccs1`: the “% Inhibition” value was -7% and the Z score is given as 1.05.
The like results for `Cc1cc(C(=O)Nc2nc(C)cs2)on1` were, in that order, -13% and 2.13.
As to `COc1ccc(NC(=O)C[C@H]2Cn3cccc3C2=O)cc1`, the “% Inhibition” value is recorded as -9% and the Z score worked out at 1.08.
As to `CCCN(CC(F)(F)F)C(=O)c1[nH]c(C)c(C(=O)OCCOC)c1C`, the “% Inhibition” value is -12% and the Z score turned out to be 1.92.
Take `Cc1noc(OCc2cc(O)cc(C(F)(F)F)c2)n1`: the “% Inhibition” value is recorded as -8% and the Z score is recorded as 1.15.
The like results for `O=C(c1cccc[n+]1[O-])N1CCCCCCC1` were, in that order, 4% and -0.6.
The like results for `Cc1nc(C(=O)N[C@@H](C)C(C)(F)F)c[nH]1` were, in that order, -16% and 1.88.
Consider `Nc1nccnc1C(=O)N1CCCCO1`, for which the “% Inhibition” value was -1% and the Z score came to 0.09.
Take `Cn1cccc(C(=O)NC2CCN(c3cc(C4CC4)[nH]n3)CC2)c1=O`: the “% Inhibition” value is on record as -3% and the Z score is recorded as 0.59.
The like results for `O=C(C[C@H]1CCOC1)NC1(C2CCCCC2)CC1` were, in that order, 1% and -0.17.
Take `C=CCNC(=O)[C@H](C)N(C)CCOc1ccccc1`: the “% Inhibition” value was determined as 6% and the Z score is on record as -0.77.
Regarding `COc1ccc(C(C)CC(=O)N2CCCC2C2COCCC2(C)O)cc1` (stereo not given), the “% Inhibition” value is -3% and the Z score is 0.51.
The like results for `CC1CC1N1CC(NC(=O)c2ncn(C(C)(C)C)n2)CC1=O` (stereo not given) were, in that order, -7% and 1.3.
The like results for `COc1ccc(C(F)(F)F)cc1NC(=O)c1ccc(-n2cncn2)nn1` were, in that order, -1% and 0.09.
The like results for `O=C(c1cc(C2CC2)[nH]n1)N1CCCN(C[C@H]2CCCO2)CC1` were, in that order, 0% and -0.01.
For `COC(=O)c1nc(NC(=O)c2c(C)nn([C@H]3CCS(=O)(=O)C3)c2C)sc1C`, the “% Inhibition” value is -10% and the Z score is listed as 1.19.
Take `O=C(c1n[nH]c2c1COc1ccccc1-2)N1CCN(Cc2ccc3c(c2)OCO3)CC1`: the “% Inhibition” value is reported as -6% and the Z score was found to be 0.9.
The like results for `COc1nc(N2CCn3nc([C@@H](O)CS(C)(=O)=O)cc3C2)ncc1F` were, in that order, 3% and -0.29.
The like results for `Cn1ccnc1CN1C[C@@H](COc2cccc(C(F)(F)F)c2)C[C@@H](C(=O)NC2CCCCC2)C1` were, in that order, -19% and 2.23.
The like results for `CCN1C(=O)CCc2cc(N[C@@H](C)c3nccn3C)ccc21` were, in that order, -10% and 1.11.
For `CN(C)[C@@H]1C[C@@H](CO)N(C(=O)c2cccc(Oc3ccccc3)c2)C1`, the “% Inhibition” value is recorded as -2% and the Z score turned out to be 0.26.
The like results for `C[C@H]1C[C@H](NC(=O)c2sccc2F)c2ccsc2S1(=O)=O` were, in that order, -11% and 1.06.
The like results for `Cc1ccc(C(=O)N2CCOc3ccc(C(=O)N4CCOCC4)cc3C2)cc1F` were, in that order, 0% and 0.
The like results for `Cc1ccc(-c2nc(CC(=O)Nc3ncc(C)s3)cs2)o1` were, in that order, -13% and 1.83.
As to `O=C(c1cccnc1-c1cnc2ccccc2c1)N1CCCC1`, the “% Inhibition” value was -9% and the Z score stood at 1.68.
Turning to `COc1ccc([C@@H]2CCCN2C(=O)c2ccc3c(c2)C(=O)N(Cc2ccco2)C3=O)cc1`, the “% Inhibition” value is -8% and the Z score turned out to be 1.2.

The record behind these values is ChEMBL document CHEMBL4888484, “Replenishing the malaria drug discovery pipeline: Screening and hit evaluation of the MMV Hit Generation Library 1 (HGL1) against asexual blood stage Plasmodium falciparum ,using a nano luciferase reporter read-out” (2022).
